The structures appear in SMILES notation. About 2,200 (0.71%) of roughly 310,000 compounds showed an effect of 50% or more. The effect is printed as a negative number. Some of the results follow.

The target of the assay is human ether-à-go-go-related gene (hERG) potassium channel (human, UniProt Q12809). Nature of the assay: primary screen, population patch clamp on CHO cells stably expressing hERG.
Chain of human ether-à-go-go-related gene (hERG) potassium channel (Q12809 whole entry, looked up): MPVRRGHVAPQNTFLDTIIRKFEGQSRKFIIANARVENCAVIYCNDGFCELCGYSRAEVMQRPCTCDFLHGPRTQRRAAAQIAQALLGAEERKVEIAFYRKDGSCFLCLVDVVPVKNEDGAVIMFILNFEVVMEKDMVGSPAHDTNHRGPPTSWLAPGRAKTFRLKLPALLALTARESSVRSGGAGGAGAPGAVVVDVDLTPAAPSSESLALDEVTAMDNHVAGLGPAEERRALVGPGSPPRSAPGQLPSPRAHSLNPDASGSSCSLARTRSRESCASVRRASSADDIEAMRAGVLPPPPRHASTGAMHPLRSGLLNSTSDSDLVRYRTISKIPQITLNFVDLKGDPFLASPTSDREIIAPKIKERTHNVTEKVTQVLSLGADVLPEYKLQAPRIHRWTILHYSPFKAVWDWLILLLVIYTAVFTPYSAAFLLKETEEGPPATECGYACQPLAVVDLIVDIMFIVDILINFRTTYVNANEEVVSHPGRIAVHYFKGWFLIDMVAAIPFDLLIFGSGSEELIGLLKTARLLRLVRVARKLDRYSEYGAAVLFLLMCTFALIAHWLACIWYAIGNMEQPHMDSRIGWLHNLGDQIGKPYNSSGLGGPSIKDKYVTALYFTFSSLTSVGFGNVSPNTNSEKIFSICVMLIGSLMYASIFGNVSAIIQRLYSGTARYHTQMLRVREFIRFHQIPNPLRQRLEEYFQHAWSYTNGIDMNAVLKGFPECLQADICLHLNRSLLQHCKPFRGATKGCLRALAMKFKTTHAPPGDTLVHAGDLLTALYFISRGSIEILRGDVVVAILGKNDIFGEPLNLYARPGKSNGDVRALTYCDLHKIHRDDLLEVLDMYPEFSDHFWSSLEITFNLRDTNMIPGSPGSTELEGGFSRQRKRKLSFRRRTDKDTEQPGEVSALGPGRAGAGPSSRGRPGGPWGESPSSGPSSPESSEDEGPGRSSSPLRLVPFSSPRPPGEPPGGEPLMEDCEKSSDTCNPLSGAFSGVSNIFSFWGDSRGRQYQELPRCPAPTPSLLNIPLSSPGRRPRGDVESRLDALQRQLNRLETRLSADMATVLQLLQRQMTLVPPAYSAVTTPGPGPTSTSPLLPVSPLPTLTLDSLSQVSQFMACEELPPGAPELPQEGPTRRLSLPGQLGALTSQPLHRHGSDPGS
Regarding `Cl.c1ccc(CN(CC2=NCCN2)c2ccccc2)cc1`, the “hERG current change (%, negative = inhibition) at 1uM” value is recorded as -2.85%.

For `CN(C)c1ccc(/C=C/C#N)cc1`, the “hERG current change (%, negative = inhibition) at 1uM” value was -6.64%.

In the case of `CN(C)C(=O)c1ccc(Nc2ncnc3sc4c(c23)CCCCC4)cc1`, the “hERG current change (%, negative = inhibition) at 1uM” value is 6.54%.

In the case of `Cn1cccc1CC(=O)NNC(=S)NC(=O)c1ccc(F)cc1`, the “hERG current change (%, negative = inhibition) at 1uM” value turned out to be 9.41%.

As for `CCC(C)NC(=O)C1CCN(S(=O)(=O)c2ccc3c(c2)CC(C)N3C(C)=O)CC1` (centres unmarked), the “hERG current change (%, negative = inhibition) at 1uM” value was determined as 1.68%.

As for `COc1ccc(CN2CCC(n3nccc3NC(=O)C3CC3)CC2)c(OC)c1OC`, the “hERG current change (%, negative = inhibition) at 1uM” value is given as -8.29%.

Regarding `CC1=CCC2(CO)COC(c3ccccc3O)C1C2` (centres unmarked), the “hERG current change (%, negative = inhibition) at 1uM” value was determined as 2.28%.

Consider `CCCc1nnc(NC(=O)C2CC(=O)N(C3CCCC3)C2)s1` (centres unmarked), for which the “hERG current change (%, negative = inhibition) at 1uM” value came out at 9.43%.

Take `CCc1nc(CN(C)C(=O)C2CCC(=O)N(Cc3cccc(F)c3)C2)no1` (centres unmarked): the “hERG current change (%, negative = inhibition) at 1uM” value is recorded as 9.2%.

As to `Cc1cc(Br)ccc1S(=O)(=O)n1ccnc1C`, the “hERG current change (%, negative = inhibition) at 1uM” value turned out to be 1.01%.

With `COc1cccc(C(=O)N/N=C/c2cn[nH]c2-c2ccc(OC)cc2OC)c1`, the “hERG current change (%, negative = inhibition) at 1uM” value is on record as 8.44%.

As to `COc1ccccc1C1CC(c2ccc(Cl)cc2)Nc2ncnn21` (centres unmarked), the “hERG current change (%, negative = inhibition) at 1uM” value is reported as -15.3%.

As to `C/C(=N/NC(=O)c1nnn(-c2nonc2N)c1COc1ccccc1)c1ccccc1`, the “hERG current change (%, negative = inhibition) at 1uM” value was 8.3%.

With `Cc1cc(C)n(-c2cccc3cccnc23)n1`, the “hERG current change (%, negative = inhibition) at 1uM” value amounted to 14.3%.

`CC(=O)c1c(C)oc2ccc(N(C(C)=O)S(=O)(=O)c3ccc(Cl)c([N+](=O)[O-])c3)cc12`: the “hERG current change (%, negative = inhibition) at 1uM” value is reported as 14%.

For the molecule `COc1ccc(-c2n[nH]c(=S)n2Cc2ccccc2)cc1`, the “hERG current change (%, negative = inhibition) at 1uM” value was determined as 8.74%.

Take `Cc1ccc(C(=O)CSc2n[nH]c(C)n2)cc1`: the “hERG current change (%, negative = inhibition) at 1uM” value is recorded as 7.53%.

For the molecule `Cc1ccc2c(c1)c1c3n2CCN(CC(N)=O)C3CCC1` (centres unmarked), the “hERG current change (%, negative = inhibition) at 1uM” value is 15.8%.

Turning to `COc1ccc2sc(-c3ccccc3OC)c(-c3ccc4c(c3)OCCO4)c2c1`, the “hERG current change (%, negative = inhibition) at 1uM” value was determined as 12.9%.

Consider `Cc1noc(C)c1CCC(=O)NC1CCCN(Cc2ccc(CC(C)C)cc2)C1` (centres unmarked), for which the “hERG current change (%, negative = inhibition) at 1uM” value is -37.8%.

As to `Cc1c(N(CC(=O)O)S(=O)(=O)c2ccccc2)c(=O)n(-c2ccccc2)n1C`, the “hERG current change (%, negative = inhibition) at 1uM” value was found to be 20%.

On to `COc1ccc(Cc2nnc(NC(=O)c3cccc(C)c3)s2)cc1`, for which the “hERG current change (%, negative = inhibition) at 1uM” value was 14%.

Take `Cc1ccc(-c2noc(CN(C(=O)c3ccc4c(c3)OCO4)C(C)C)n2)cc1`: the “hERG current change (%, negative = inhibition) at 1uM” value worked out at 13.1%.

On to `Cc1ccc(NC(=O)c2ccc(S(=O)(=O)N3CCOCC3)cc2)nc1`, for which the “hERG current change (%, negative = inhibition) at 1uM” value is -7.41%.

Take `O=C(NC(NC(=S)Nc1ccccc1C(=O)O)C(Cl)(Cl)Cl)c1cccc([N+](=O)[O-])c1` (centres unmarked): the “hERG current change (%, negative = inhibition) at 1uM” value came out at 11.2%.

Take `CC(C)c1nc(SCC(=O)c2ccccc2)c2c(=O)n(C)c(=O)n(C)c2n1`: the “hERG current change (%, negative = inhibition) at 1uM” value is 10.7%.

Turning to `COc1ccc2c(COC(=O)CNC(=O)C34CC5CC(CC(C5)C3)C4)cc(=O)oc2c1`, the “hERG current change (%, negative = inhibition) at 1uM” value stood at 2%.

With `Cc1nc(N2CCOCC2)c2c(C)c(C(=O)Nc3ccccc3Cl)sc2n1`, the “hERG current change (%, negative = inhibition) at 1uM” value is 8.76%.

For the molecule `COc1ccc(OC)c(/C=N\NC(=O)CC(=O)NCCc2ccccc2)c1`, the “hERG current change (%, negative = inhibition) at 1uM” value is listed as 11.7%.

Consider `COCC(C)NC(=S)Nc1ccccc1[N+](=O)[O-]` (centres unmarked), for which the “hERG current change (%, negative = inhibition) at 1uM” value came out at 13.7%.

In the case of `CCN(N=O)[C@@H](Cc1ccccc1)CN(N=O)[C@@H](Cc1ccccc1)CN(C)N=O.[Na+]`, the “hERG current change (%, negative = inhibition) at 1uM” value amounted to 13.4%.

For the molecule `COc1ccc([C@@H](C)NC(=O)c2ccc3oc(C(C)C)nc3c2)cc1`, the “hERG current change (%, negative = inhibition) at 1uM” value worked out at 45.7%.

For `Cc1ccc(NS(=O)(=O)c2ccc(NC(=O)c3cccc(NC(=O)C(C)C)c3)cc2)cc1`, the “hERG current change (%, negative = inhibition) at 1uM” value is given as 10.1%.

Consider `O=C(Nc1ccc(S(=O)(=O)N2CCCC2)cc1Cl)C1=COCCO1`, for which the “hERG current change (%, negative = inhibition) at 1uM” value was -1.24%.

`CCNC(=O)c1cc(Br)ccc1Cl`: the “hERG current change (%, negative = inhibition) at 1uM” value was determined as 11.9%.

In the case of `CC1CCCCC1NC(=O)c1ccc2c(c1)OCCO2` (centres unmarked), the “hERG current change (%, negative = inhibition) at 1uM” value amounted to 12.4%.

As for `CCNC(=O)c1ccc(=O)n(Cc2ccc(Cl)cc2Cl)c1`, the “hERG current change (%, negative = inhibition) at 1uM” value is 2.11%.

With `O=C1NC(=O)N(c2ccccc2)C(=O)/C1=C\c1ccccc1[N+](=O)[O-]`, the “hERG current change (%, negative = inhibition) at 1uM” value is recorded as 14.1%.

Take `CNC(=S)N/N=C(\C)c1ccc(C(C)(C)C)cc1`: the “hERG current change (%, negative = inhibition) at 1uM” value worked out at 1.09%.

For `Cn1cc(Br)c(-c2cccc(NC(=O)CCCC(=O)O)c2)n1`, the “hERG current change (%, negative = inhibition) at 1uM” value came out at 13.5%.

Regarding `CCn1c(COc2cc(C)cc(C)c2)nnc1SCC(=O)N1CCN(c2ccccc2)CC1`, the “hERG current change (%, negative = inhibition) at 1uM” value is reported as 1.88%.

For `O=C(CN(C(=O)CCC(=O)Nc1nccs1)c1ccc2c(c1)OCCO2)NCc1ccco1`, the “hERG current change (%, negative = inhibition) at 1uM” value worked out at 12.1%.

Turning to `CCN(CC)CCNC(C(=O)Nc1cccc(C(C)=O)c1)c1ccccc1.O=C(O)C(=O)O` (centres unmarked), the “hERG current change (%, negative = inhibition) at 1uM” value is -51.4%.

For `COc1ccc(NC(=S)N(CCc2c(C)[nH]c3ccc(C)cc23)Cc2cccnc2)cc1`, the “hERG current change (%, negative = inhibition) at 1uM” value turned out to be 3.84%.

For the origin of these results see publication PMC4336329 (PLoS ONE, 2015).
